# In the supplement of paper PMC8728848:
# The list shows a part of the results.
# B1: PX9937J-pdi-523-26-523 (Parabacteroides distasonis) (protein)
# chain: EPVSSISDANYWKSPDLFKAFNIGLHGLLRSQSSYNIFVLGEPRSDIYGDQPFGGEATQGVERFSYNTINAEFTGISNFANFYTTLNQINLMIRRTNETDLLGEAEKNYYLGQAYGLRAYIYFHLLRSWGDVIITTEPTLGSELDISHLDKAASPASEVMDLIKKDIDASEKAFGGDYSYKQGKCYWSKPATLMLKGEVYLWSGRQMGGGTGDYTVAKTALQDLQQNGNLKLQEKFTDVFSFNNKENSEMIFALHSGKEDDFMMWRDYNWRNNMVPQREYMAGYCDETGTPFLEIPGYNLQGLMRYQVKKDHYLKSFREGDTRLKGTLKAVYKKHEDGTLEYIAPIQYKFQGTTLEGSNERSWYDDYPIYRYADALLLLAEAKALLGEDPSTEINAVRERAYGSEYFNAHKNEVAYPNDKGSFYNDNPFEAGDENVMEAILKERLREFFFEGKRWYDLRRFGKDYVLKYTTAQESRLLWPINEGALTNNPALKQTPGY
# Legend:
# Experiment in all cases: glycan array binding signal (z-score within array); higher = stronger binding
# Conditions in all cases: glycan notation: IUPAC condensed, linker removed
# Fuc(a1-2)Gal = target: Fuc(a1-2)Gal
# Summary of the method: (§1)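 The binding signal is a Z-score computed within each array. Data were drawn from 3228 arrays in the Consortium for Functional Glycomics database, restricted to those with a known protein sequence. Scores were averaged over arrays of the same protein sequence at different concentrations or buffers, and over linkers, and negative values can be taken as non-binding.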
# Fuc(a1-2)Gal(b1-3)GalNAc = target: Fuc(a1-2)Gal(b1-3)GalNAc
# Summary of the method: as §1
# [1] = target: Fuc(a1-2)Gal(b1-3)GalNAc(a1-3)[Fuc(a1-2)]Gal(b1-4)Glc
# Summary of the method: as §1
# [2] = target: Fuc(a1-2)Gal(b1-3)GalNAc(a1-3)[Fuc(a1-2)]Gal(b1-4)GlcNAc
# Summary of the method: as §1
# [3] = target: Fuc(a1-2)Gal(b1-3)GalNAc(b1-3)Gal
# Summary of the method: as §1
# [4] = target: Fuc(a1-2)Gal(b1-3)GalNAc(b1-3)Gal(a1-4)Gal(b1-4)Glc
# Summary of the method: as §1
# [5] = target: Fuc(a1-2)Gal(b1-3)GalNAc(b1-4)[Neu5Ac(a2-3)]Gal(b1-4)Glc
# Summary of the method: as §1
# Fuc(a1-2)Gal(b1-3)GlcNAc = target: Fuc(a1-2)Gal(b1-3)GlcNAc
# Summary of the method: as §1
# [6] = target: Fuc(a1-2)Gal(b1-3)GlcNAc(b1-2)Man(a1-3)[Fuc(a1-2)Gal(b1-3)GlcNAc(b1-2)Man(a1-6)]Man(b1-4)GlcNAc(b1-4)GlcNAc
# Summary of the method: as §1
# [7] = target: Fuc(a1-2)Gal(b1-3)GlcNAc(b1-2)Man(a1-3)[Fuc(a1-2)Gal(b1-3)GlcNAc(b1-2)Man(a1-6)]Man(b1-4)GlcNAc(b1-4)[Fuc(a1-6)]GlcNAc
# Summary of the method: as §1
# [8] = target: Fuc(a1-2)Gal(b1-3)GlcNAc(b1-3)Gal(b1-4)Glc
# Summary of the method: as §1
# [9] = target: Fuc(a1-2)Gal(b1-3)GlcNAc(b1-3)GalNAc
# Summary of the method: as §1
# [10] = target: Fuc(a1-2)Gal(b1-3)GlcNAc(b1-3)[Fuc(a1-2)Gal(b1-3)GlcNAc(b1-6)]GalNAc
# Summary of the method: as §1
# [11] = target: Fuc(a1-2)Gal(b1-3)GlcNAc(b1-3)[Gal(b1-4)GlcNAc(b1-6)]Gal(b1-4)Glc
# Summary of the method: as §1
# [12] = target: Fuc(a1-2)Gal(b1-3)GlcNAc(b1-3)[Neu5Ac(a2-6)Gal(b1-4)GlcNAc(b1-6)]Gal(b1-4)Glc
# Summary of the method: as §1
# [13] = target: Fuc(a1-2)Gal(b1-3)GlcNAc6S
# Summary of the method: as §1
# [14] = target: Fuc(a1-2)Gal(b1-3)[Fuc(a1-4)]GlcNAc
# Summary of the method: as §1
# [15] = target: Fuc(a1-2)Gal(b1-3)[Fuc(a1-4)]GlcNAc(b1-2)Man(a1-3)[Fuc(a1-2)Gal(b1-3)[Fuc(a1-4)]GlcNAc(b1-2)Man(a1-3)]Man(b1-4)GlcNAc(b1-4)GlcNAc
# Summary of the method: as §1
# [16] = target: Fuc(a1-2)Gal(b1-3)[Fuc(a1-4)]GlcNAc(b1-2)Man(a1-3)[Fuc(a1-2)Gal(b1-3)[Fuc(a1-4)]GlcNAc(b1-2)Man(a1-6)]Man(b1-4)GlcNAc(b1-4)[Fuc(a1-6)]GlcNAc(b1-4)[Fuc(a1-6)]GlcNAc
# Summary of the method: as §1
# [17] = target: Fuc(a1-2)Gal(b1-3)[Fuc(a1-4)]GlcNAc(b1-3)[Fuc(a1-3)[Gal(b1-4)]GlcNAc(b1-6)]Gal(b1-4)Glc
# Summary of the method: as §1
# [18] = target: Fuc(a1-2)Gal(b1-3)[Fuc(a1-4)]GlcNAc(b1-3)[Gal(b1-4)GlcNAc(b1-6)]Gal(b1-4)Glc
# Summary of the method: as §1
# Fuc(a1-2)Gal(b1-4)Glc = target: Fuc(a1-2)Gal(b1-4)Glc
# Summary of the method: as §1
# Fuc(a1-2)Gal(b1-4)Glc6S = target: Fuc(a1-2)Gal(b1-4)Glc6S
# Summary of the method: as §1
# Fuc(a1-2)Gal(b1-4)GlcNAc = target: Fuc(a1-2)Gal(b1-4)GlcNAc
# Summary of the method: as §1
# [19] = target: Fuc(a1-2)Gal(b1-4)GlcNAc(b1-2)Man
# Summary of the method: as §1
# [20] = target: Fuc(a1-2)Gal(b1-4)GlcNAc(b1-2)Man(a1-3)[Fuc(a1-2)Gal(b1-4)GlcNAc(b1-2)Man(a1-6)]Man(b1-4)GlcNAc(b1-4)GlcNAc
# Summary of the method: as §1
# [21] = target: Fuc(a1-2)Gal(b1-4)GlcNAc(b1-2)Man(a1-3)[Fuc(a1-2)Gal(b1-4)GlcNAc(b1-2)Man(a1-6)]Man(b1-4)GlcNAc(b1-4)[Fuc(a1-6)]GlcNAc
# Summary of the method: as §1
# [22] = target: Fuc(a1-2)Gal(b1-4)GlcNAc(b1-2)[Fuc(a1-2)Gal(b1-4)GlcNAc(b1-4)]Man(a1-3)[Fuc(a1-2)Gal(b1-4)GlcNAc(b1-2)Man(a1-6)]Man(b1-4)GlcNAc(b1-4)GlcNAc
# Summary of the method: as §1
# [23] = target: Fuc(a1-2)Gal(b1-4)GlcNAc(b1-3)Gal(b1-4)GlcNAc
# Summary of the method: as §1
# [24] = target: Fuc(a1-2)Gal(b1-4)GlcNAc(b1-3)Gal(b1-4)GlcNAc(b1-2)Man(a1-3)[Fuc(a1-2)Gal(b1-4)GlcNAc(b1-3)Gal(b1-4)GlcNAc(b1-2)Man(a1-6)]Man(b1-4)GlcNAc(b1-4)GlcNAc
# Summary of the method: as §1
binder,measurement,setting,value
B1,glycan array binding signal (z-score),Fuc(a1-2)Gal,0.023
same,glycan array binding signal (z-score),Fuc(a1-2)Gal(b1-3)GalNAc,-0.27
same,glycan array binding signal (z-score),[1],-0.166
same,glycan array binding signal (z-score),[2],-0.617
same,glycan array binding signal (z-score),[3],0.075
same,glycan array binding signal (z-score),[4],-0.291
same,glycan array binding signal (z-score),[5],-0.095
same,glycan array binding signal (z-score),Fuc(a1-2)Gal(b1-3)GlcNAc,-0.435
same,glycan array binding signal (z-score),[6],0.513
same,glycan array binding signal (z-score),[7],-0.51
same,glycan array binding signal (z-score),[8],-0.373
same,glycan array binding signal (z-score),[9],-0.419
same,glycan array binding signal (z-score),[10],-0.127
same,glycan array binding signal (z-score),[11],-0.605
same,glycan array binding signal (z-score),[12],-0.634
same,glycan array binding signal (z-score),[13],-0.687
same,glycan array binding signal (z-score),[14],-0.325
same,glycan array binding signal (z-score),[15],0.203
same,glycan array binding signal (z-score),[16],-0.375
same,glycan array binding signal (z-score),[17],0.154
same,glycan array binding signal (z-score),[18],-0.518
same,glycan array binding signal (z-score),Fuc(a1-2)Gal(b1-4)Glc,-0.379
same,glycan array binding signal (z-score),Fuc(a1-2)Gal(b1-4)Glc6S,-0.759
same,glycan array binding signal (z-score),Fuc(a1-2)Gal(b1-4)GlcNAc,-0.351
same,glycan array binding signal (z-score),[19],-0.1
same,glycan array binding signal (z-score),[20],-0.132
same,glycan array binding signal (z-score),[21],0.953
same,glycan array binding signal (z-score),[22],-0.052
same,glycan array binding signal (z-score),[23],-0.477
same,glycan array binding signal (z-score),[24],0.281
